This is one part of the list.

Here are results for 153 variants from a collection of fitness landscapes (doi:10.1126/science.1257360).

Sequences and labels used below:
B1: PhoQ; a variant is named by its letters at X, in order, P23837 (parent)
chain: MKKLLRLFFPLSLRVRFLLATAAVVLVLSLAYGMVALIGYSVSFDKTTFRLLRGESNLFYTLAKWENNKLHVELPENIDKQSPTMTLIYDENGQLLWAQRDVPWLMKMIQPDWLKSNGFHEIEADVNDTSLLLSGDHSIQQQLQEVREDDDDAEMTHSVAVNVYPATSRMPKLTIVVVDTIPVELKSSYMVWSWFIYVLSANLLLVIPLLWVAAWWSLRPIEALAKEVRELEEHNRELLNPATTRELTSLVRNLNRLLKSERERYDKYRTTLTDLTHSLKTPLXXLQXXLRSLRSEKMSVSDAEPVMLEQISRISQQIGYYLHRASMRGGTLLSRELHPVAPLLDNLTSALNKVYQRKGVNISLDISPEISFVGEQNDFVEVMGNVLDNACKYCLEFVEISARQTDEHLYIVVEDDGPGIPLSKREVIFDRGQRVDTLRPGQGVGLAVAREITEQYEGKIVAGESMLGGARMEVIFGRQHSAPKDE

This experiment covers variants of B1. Briefly: enrichment ratio after two sorts for PhoP signalling (ratio (wild type AVST 3.29)); higher = more functional. To be noted: with PhoP (E. coli).
As for TANY, the enrichment ratio is 6.49.

For the variant VPAF, the enrichment ratio was at most 0.25.

As to TSYV, the enrichment ratio worked out at 6.72.

For ISIV, the enrichment ratio was at most 0.25.

Regarding EQCQ, the enrichment ratio is at most 0.25.

Take HQEV: the enrichment ratio was at most 0.25.

For RMDY, the enrichment ratio is at most 0.25.

RCPN: the enrichment ratio is at most 0.25.

In the case of RIGA, the enrichment ratio is at most 0.25.

In the case of HCIP, the enrichment ratio is at most 0.25.

For WQWL, the enrichment ratio is at most 0.25.

AWLI: the enrichment ratio was at most 0.25.

Regarding IRAV, the enrichment ratio is at most 0.25.

For ACYK, the enrichment ratio was at most 0.25.

Consider MRVT, for which the enrichment ratio was at most 0.25.

Take SQSS: the enrichment ratio was 11.6.

In the case of IHKV, the enrichment ratio is at most 0.25.

With SVEW, the enrichment ratio was at most 0.25.

Take KGVS: the enrichment ratio is at most 0.25.

Consider VCRY, for which the enrichment ratio is at most 0.25.

For DYNI, the enrichment ratio was at most 0.25.

As to YGGV, the enrichment ratio was at most 0.25.

IGAS: the enrichment ratio is at most 0.25.

With QMLK, the enrichment ratio was at most 0.25.

For LNRR, the enrichment ratio was at most 0.25.

NNVY: the enrichment ratio was at most 0.25.

FIIN: the enrichment ratio stood at 1.02.

Turning to MRRT, the enrichment ratio was at most 0.25.

In the case of ILTG, the enrichment ratio is at most 0.25.

As to PDFA, the enrichment ratio is at most 0.25.

On to KDRA, for which the enrichment ratio was at most 0.25.

For ATKW, the enrichment ratio was at most 0.25.

Turning to WGAL, the enrichment ratio was at most 0.25.

With QFNR, the enrichment ratio was at most 0.25.

As to EQDI, the enrichment ratio was at most 0.25.

Turning to SIAQ, the enrichment ratio came to 10.9.

On to YFAS, for which the enrichment ratio was at most 0.25.

With YIST, the enrichment ratio came out at 0.468.

On to GPMG, for which the enrichment ratio is at most 0.25.

As for GNQD, the enrichment ratio was at most 0.25.

With AVIG, the enrichment ratio stood at 9.96.

On to STAD, for which the enrichment ratio is at most 0.25.

For the variant KFAY, the enrichment ratio was at most 0.25.

For the variant DYGY, the enrichment ratio is at most 0.25.

EPVS: the enrichment ratio is at most 0.25.

Turning to KCST, the enrichment ratio is at most 0.25.

On to NYEF, for which the enrichment ratio is at most 0.25.

Consider GYGL, for which the enrichment ratio is at most 0.25.

As to PCNH, the enrichment ratio is at most 0.25.

With SGHY, the enrichment ratio was at most 0.25.

As for ELGI, the enrichment ratio was at most 0.25.

Turning to TDEK, the enrichment ratio was at most 0.25.

Take RWCI: the enrichment ratio was at most 0.25.

In the case of GNNT, the enrichment ratio is at most 0.25.

FASP: the enrichment ratio is at most 0.25.

Regarding YLSL, the enrichment ratio is at most 0.25.

Take ETHK: the enrichment ratio is at most 0.25.

In the case of IVQD, the enrichment ratio is at most 0.25.

Regarding LNYF, the enrichment ratio was at most 0.25.

With WCTI, the enrichment ratio is at most 0.25.

With PRAY, the enrichment ratio was at most 0.25.

As to RNDV, the enrichment ratio is at most 0.25.

Regarding TGDA, the enrichment ratio is at most 0.25.

YPIR: the enrichment ratio is at most 0.25.

Turning to ILYL, the enrichment ratio was at most 0.25.

For SKSN, the enrichment ratio is at most 0.25.

As for IDYS, the enrichment ratio was at most 0.25.

As for TLWS, the enrichment ratio is at most 0.25.

In the case of QQLG, the enrichment ratio was determined as 2.01.

Regarding ECAA, the enrichment ratio is at most 0.25.

Take SPFR: the enrichment ratio is at most 0.25.

In the case of HSFG, the enrichment ratio is at most 0.25.

Take IQVY: the enrichment ratio is at most 0.25.

Turning to YSML, the enrichment ratio turned out to be 14.4.

For the variant AMSA, the enrichment ratio came out at 8.08.

For the variant ARMH, the enrichment ratio is at most 0.25.

On to LCPY, for which the enrichment ratio is at most 0.25.

Regarding LIDW, the enrichment ratio is at most 0.25.

Take KPRD: the enrichment ratio is at most 0.25.

ENAT: the enrichment ratio is at most 0.25.

EFKY: the enrichment ratio is at most 0.25.

For the variant SPMP, the enrichment ratio was at most 0.25.

LWMY: the enrichment ratio was at most 0.25.

With RKQK, the enrichment ratio is at most 0.25.

As for GWWF, the enrichment ratio was at most 0.25.

In the case of NETS, the enrichment ratio was at most 0.25.

Turning to YQCD, the enrichment ratio was at most 0.25.

In the case of HYLY, the enrichment ratio was at most 0.25.

For KLLW, the enrichment ratio is at most 0.25.

Take TQYH: the enrichment ratio turned out to be 0.375.

Take EMAM: the enrichment ratio is at most 0.25.

As to RPSV, the enrichment ratio was at most 0.25.

For THKM, the enrichment ratio was at most 0.25.

In the case of LHAW, the enrichment ratio was at most 0.25.

RKAL: the enrichment ratio is at most 0.25.

Consider HWAL, for which the enrichment ratio is at most 0.25.

As for SLNN, the enrichment ratio was at most 0.25.

As to FGSN, the enrichment ratio was at most 0.25.

Take FPYS: the enrichment ratio is at most 0.25.

In the case of EFQY, the enrichment ratio is at most 0.25.

Take RFQA: the enrichment ratio is at most 0.25.

SMYI: the enrichment ratio was at most 0.25.

For the variant MLRA, the enrichment ratio is at most 0.25.

With KHPA, the enrichment ratio is at most 0.25.

For RYPF, the enrichment ratio was at most 0.25.

In the case of YVRF, the enrichment ratio is at most 0.25.

In the case of YYWH, the enrichment ratio is at most 0.25.

As for RFGN, the enrichment ratio was at most 0.25.

With HLSF, the enrichment ratio was at most 0.25.

Consider LRNS, for which the enrichment ratio is at most 0.25.

As to SGNK, the enrichment ratio was at most 0.25.

In the case of EDQF, the enrichment ratio was at most 0.25.

Regarding FIIM, the enrichment ratio is at most 0.25.

Take VWGR: the enrichment ratio is at most 0.25.

As to KPAS, the enrichment ratio was at most 0.25.

On to TCTE, for which the enrichment ratio is at most 0.25.

Take YGNF: the enrichment ratio is at most 0.25.

On to HFRD, for which the enrichment ratio was at most 0.25.

Take NRTE: the enrichment ratio was at most 0.25.

As for THVV, the enrichment ratio amounted to 1.48.

Take QLTN: the enrichment ratio is at most 0.25.

Consider GAPT, for which the enrichment ratio was at most 0.25.

For AACH, the enrichment ratio was at most 0.25.

Regarding IEFE, the enrichment ratio was at most 0.25.

Consider MCRC, for which the enrichment ratio was at most 0.25.

Turning to IYYL, the enrichment ratio was at most 0.25.

In the case of KFTF, the enrichment ratio was at most 0.25.

For QSDR, the enrichment ratio is at most 0.25.

As to KQEN, the enrichment ratio is at most 0.25.

Consider RYLM, for which the enrichment ratio was at most 0.25.

For LWCH, the enrichment ratio is at most 0.25.

Turning to DFDY, the enrichment ratio is at most 0.25.

Consider WQAL, for which the enrichment ratio is at most 0.25.

Regarding KCHP, the enrichment ratio is at most 0.25.

On to IPED, for which the enrichment ratio is at most 0.25.

DGAF: the enrichment ratio was at most 0.25.

Take KCCC: the enrichment ratio was at most 0.25.

In the case of YHYN, the enrichment ratio is at most 0.25.

TRAP: the enrichment ratio is at most 0.25.

Consider VWIM, for which the enrichment ratio was at most 0.25.

As for VMVI, the enrichment ratio is at most 0.25.

In the case of MGST, the enrichment ratio is 1.23.

For the variant LIAL, the enrichment ratio was at most 0.25.

As for QDEY, the enrichment ratio is at most 0.25.

Turning to KYSG, the enrichment ratio was at most 0.25.

Take RSFK: the enrichment ratio was at most 0.25.

Regarding YSCT, the enrichment ratio is at most 0.25.

With IDLT, the enrichment ratio is at most 0.25.

For the variant TCSF, the enrichment ratio worked out at 8.33.

Regarding WEIK, the enrichment ratio is at most 0.25.

Take NYNH: the enrichment ratio was at most 0.25.

AAKR: the enrichment ratio is at most 0.25.

Consider YKTM, for which the enrichment ratio is at most 0.25.
